This is an account of results in publication PMC6944527 (The American Journal of Clinical Nutrition, 2019).

Counter-ions that a name gives are not always drawn. Like-named read-outs stand apart in the source and are kept apart here.

Assay [1] concerns the target T1, ThTR-2 (SLC19A3) (Homo sapiens, UniProt Q9BZV2).
T1 sequence (Q9BZV2 1-496): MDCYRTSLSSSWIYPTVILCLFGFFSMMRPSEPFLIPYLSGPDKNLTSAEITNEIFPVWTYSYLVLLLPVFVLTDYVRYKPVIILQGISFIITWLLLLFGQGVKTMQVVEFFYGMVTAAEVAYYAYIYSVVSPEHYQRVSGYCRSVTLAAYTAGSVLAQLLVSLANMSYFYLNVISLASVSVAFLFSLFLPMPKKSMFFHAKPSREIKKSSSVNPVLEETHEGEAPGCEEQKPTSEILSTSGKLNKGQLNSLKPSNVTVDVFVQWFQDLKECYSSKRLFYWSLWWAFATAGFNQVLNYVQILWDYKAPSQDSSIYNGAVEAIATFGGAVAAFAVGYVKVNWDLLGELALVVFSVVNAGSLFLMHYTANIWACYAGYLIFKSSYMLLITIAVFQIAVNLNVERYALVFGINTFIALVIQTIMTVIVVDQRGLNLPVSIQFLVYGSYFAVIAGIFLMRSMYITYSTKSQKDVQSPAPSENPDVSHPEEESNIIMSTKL
Nature of the assay: Clinical relevance ratio. Conditions: based on current FDA guidelines; ratio >10.

The target in assay [2] is T1, ThTR-2 (SLC19A3).
For assay [3], the target named is T1, ThTR-2 (SLC19A3). The assay can be described thus: Radiometric cell uptake primary screen. It counts as cell-based.

Take `CN(C)CCC=C1c2ccccc2CCc2ccccc21` [Amitriptyline hydrochloride]: the DDI study recommended result in assay [1] is reported as “Yes”. This molecule had an IC50 in assay [2] of 11.3 ± 2.85 µM. On the same counts, the results for `Clc1ccc2c(c1)C(N1CCNCC1)=Nc1ccccc1O2` [Amoxapine] are “Yes” and 46.6 ± 14.7 µM.

As for `O=C(O)CC(O)(CC(=O)O)C(=O)O` [Citric acid], in assay [2] (8-point dose response follow-up of screen hits/nonhits), the “validation of primary screen call by dose response curves” value was “false positive”. On to `O=c1[nH]cnc2c1ncn2[C@H]1CC[C@@H](CO)O1` [Didanosine], for which the DDI study recommended result in assay [1] was “No”. Same read-out and setting: next, `Cc1cnc(Nc2ccc(OCCN3CCCC3)cc2)nc1Nc1cccc(S(=O)(=O)NC(C)(C)C)c1` [Fedratinib]: “Yes”; `CN(C)C(=N)N=C(N)N` [Metformin hydrochloride]: “Yes”. Turning to `CC(C)(S)[C@@H](N)C(=O)O` [Penicillamine ethanolamine salt], the DDI study recommended entry in assay [1] is “Yes”. Further, the concentration for half-maximal inhibition (IC50) in assay [2] came out at 857 ± 372 µM. On to `CC[C@@H]([C@H](C)O)n1ncn(-c2ccc(N3CCN(c4ccc(OC[C@@H]5CO[C@@](Cn6cncn6)(c6ccc(F)cc6F)C5)cc4)CC3)cc2)c1=O` [Posaconazole], for which the DDI study recommended entry in assay [1] is “No”. For the molecule `CCOC(=O)[C@H](CCc1ccccc1)N[C@@H](C)C(=O)N1Cc2ccccc2C[C@H]1C(=O)O` [Quinapril], the DDI study recommended result in assay [1] was “Yes”. The molecule further returned an IC50 in assay [2] of 34 ± 7.36 µM.

For the molecule `CN[C@H]1CC[C@@H](c2ccc(Cl)c(Cl)c2)c2ccccc21` [Sertraline hydrochloride], the DDI study recommended result in assay [1] was “Yes”. For `CCCc1nc2c(C)cc(-c3nc4ccccc4n3C)cc2n1Cc1ccc(-c2ccccc2C(=O)O)cc1` [Telmisartan], in assay [1], the DDI study recommended entry is given as “No”. In addition, in assay [2] (Table 1, 250 nM thiamine, 5 min uptake, HEK293-ThTR-2), the IC50 entry is “Not convergent”. Regarding `COc1ccc(C[C@H](N)C(=O)N[C@H]2[C@@H](O)[C@H](n3cnc4c(N(C)C)ncnc43)O[C@@H]2CO)cc1` [puromycin], the “inhibition of thiamine uptake compared to control” value in assay [3] is reported as at most 10%. Still for that read-out and setting: the value for `[H]/N=C(/N)N[C@H]1[C@H](O)[C@@H](O)[C@H](O[C@@H]2O[C@@H](C)[C@](O)(C=O)[C@H]2O[C@@H]2O[C@@H](CO)[C@H](O)[C@@H](O)[C@@H]2NC)[C@@H](N/C(N)=N\[H])[C@@H]1O` [streptomycin] was at most 10%; that for Penicillin was at most 10%.

In general, IC50 refers to the concentration that gives 50% inhibition. Read a low IC50 as greater potency.
